At least one peptide structure holds a part that was inferred or is arguable (an end, a ring closure or a residue). Where a SMILES comes first, the peptide text is derived from it. Bridges are numbered along the chain shown (N, C = ends).
Tests used:
EAE in SJL mice = experiment: Experimental allergic encephalomyelitis (EAE) model; format: in vivo, mouse; conditions: murine EAE model
Description: Experimental allergic encephalomyelitis (EAE) is considered to be the best experimental animal model for the study of multiple sclerosis since it shares many of the same clinical and histopathological features as the human disorder. EAE can be elicited in several animal species, including mice, by inoculation of crude CNS tissue extracts, purified MBP, proteolipids, or synthetic polypeptides composed of the active portions of these antigenic molecules. Antigen is administered subcutaneously in conjunction with complete Freund's adjuvant (CFA) and, in our modification of the standard procedure, is given twice on days 0 and 7 for induction (Korngold et al., (1986) Immunogenetics 24:309-315, which is incorporated herein by reference). […]
SJL mice, which are highly susceptible to the induction of acute EAE, were immunized as described in Korngold et al., (1986) Immunogenetics 24:309-315. […] Mice were evaluated daily for symptoms of disease and graded 0-5: 0=no clinical expression of disease; 1=flaccid tail with or without mild hind leg weakness; 2=flaccid tail with moderate hind leg weakness; 3=severe hind leg weakness and mild forelimb weakness; 4=total hind leg paralysis associated with moderate forelimb weakness; and 5=quadriplegia or a moribund state. […]
With the same experiment described above, mice from the different treatment groups were scored for the clinical expression of disease. […]

BALB/c spleen cells = experiment: Spleen cell proliferative response to anti-CD3, LPS and rIL-2; format: cell-based, mouse
[1] = tested on: BALB/c spleen cells (responder) with irradiated C3H spleen cells (stimulator); experiment: Mixed lymphocyte reaction (MLR), BALB/c anti-C3H alloresponse; format: cell-based, mouse
From the text: The mixed lymphocyte reaction (MLR) is the response of one individual's T lymphocytes to those of a major histocompatibility complex (MHC) mismatched donor. CD4+ T cells recognize the foreign MHC proteins and proliferate in response to this, in a manner highly dependent on the CD4 molecule.
Mice were sacrificed and spleens aseptically removed. Cell suspensions were made by gently pressing spleens through nylon mesh, washing cells with RPMI 1640 and hypotonic lysis of red blood cells. After 3 washes in RPMI 1640, cells were resuspended in complete medium (RPMI 1640, 10% heat inactivated FCS, 2 mM L-glutamine, penicillin/streptomycin, and […]). 1×10^5 responder cells (BALB/c spleen cells) were incubated with 1×10^5 stimulator cells (C3H spleen cells, 2000 rad irradiated) in triplicate in round bottom 96 well plates (final volume 200 μl), and incubated with the indicated concentration of peptide (0.01, 0.1, 1, 10, 100 and 1000 μM peptide) for 5 days at 37° C., 5% CO2. 1 μCi/WELL OF [^3 H] TdR was added 12 hours before thymidine incorporation was measured. Labelled DNA from cells was harvested onto glass fiber filters with a PHD cell harvester (Cambridge, Mass.), and CPM determined by liquid scintillation counting with the use of a 1209 Rackbeta (LKB, Piscataway, N.J.).
A MLR was performed as described in Example 6. Cells were incubated with a 0.01, 0.1, 1, 10, 100, and 1000 μM of each of the following peptides: SEQ ID NO:1 (mPGPtide), and control peptides, SEQ ID NO:3 (hPGPtides) and SEQ ID NO:13 (mCDR3 scramble). […] Activity was approximately 85000 CPM after the addition of 0.01 μM SEQ ID NO:1, and approximately 30000 CPM after the addition of 200 μM SEQ ID NO:1. […] Activity was approximately 75000 CPM at 0.01 μM SEQ ID NO:3, and approximately 60000 CPM after the addition of 200 μM SEQ ID NO:3. Similarly, activity was approximately 80000 CPM after the addition of 0.01 μM of SEQ ID NO:13, and approximately 90000 CPM after the addition of 200 μM SEQ ID NO:13.
A MLR was performed as described in Example 6 using 0.01, 0.1, 1, 5, 20, 50 and 100 μM of SEQ ID NO:7, SEQ ID NO:8, SEQ ID NO:9 and SEQ ID NO:10. Murine peptides SEQ ID NO:7 (m86-104 C--C), SEQ ID NO:8 (m86-104 linear), SEQ ID NO:9 (m86-104 scramble), and SEQ ID NO:10 (m86-103 C--C) were tested for their effects on MLR in a BALB/c (H-2D) anti-C3H (H-2K) alloresponse. […] FIG. 4 illustrates the ability of the CDR3 analogs to inhibit L3T4-dependent responses. […] Thus, presentation of this charge in the context of both sequence as well as conformation is necessary for biological activity.

CC(C)C[C@@H]1NC(=O)[C@H](CCC(=O)O)NC(=O)[C@@H](N)CSSC[C@@H](C(=O)O)NC(=O)[C@@H]2CCCN2C(=O)CNC(=O)[C@@H]2CCCN2C(=O)[C@H](CCC(=O)O)NC(=O)[C@H](CCC(=O)O)NC(=O)[C@H](CCCCN)NC(=O)[C@H](CCCNC(=N)N)NC(=O)[C@H](CC(N)=O)NC(=O)[C@H](CCC(=O)O)NC1=O [SEQ ID NO:1, CELENRKEEPGPC] (H-CELENRKEEPGPC-OH; disulfide 1-13)
effect on the course of disease progression (EAE) (EAE in SJL mice): no statistically significant effect | proliferative response to rIL-2 (BALB/c spleen cells; 100 U/ml): no inhibition | LPS-mediated B-cell proliferation (BALB/c spleen cells; LPS 10 μg/ml): no inhibition | MLR activity (CPM) ([1]; 0.01 μM peptide): approximately 85000 CPM | MLR activity (CPM) ([1]; 200 μM peptide): approximately 30000 CPM | inhibitory activity on MLR ([1]; BALB/c anti-C3H MLR, 5 days, [3H]TdR incorporation): inhibitory activity at low concentrations | effect of pretreatment of the responding T cells (not the antigen presenting cells) ([1]; pretreatment of responding T cells): inhibited stimulation
